Results as given in PubChem BioAssay AID1240 (Sanford-Burnham Center for Chemical Genomics, 2008).
The whole screen tested about 50,000 compounds, of which about 800 (1.6%) showed an effect of 50% or more. This is one part of the list.

target: Bcl-2-like protein 10 (Homo sapiens) (UniProt Q9HD36); experiment: TR3 peptide-Bcl-B binding displacers, biochemical primary FP assay, phenotype converters (AID 1240); conditions: GST-Bcl-B / FITC-TR3 peptide fluorescence polarization; stronger effect = higher value; compound at 3.75 mg/L;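 note: 0% = Bcl-B with tracer peptide and DMSO and 100% = tracer peptide lacking Bcl-B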
Sequence of UniProt Q9HD36 (Q9HD36 whole entry, looked up): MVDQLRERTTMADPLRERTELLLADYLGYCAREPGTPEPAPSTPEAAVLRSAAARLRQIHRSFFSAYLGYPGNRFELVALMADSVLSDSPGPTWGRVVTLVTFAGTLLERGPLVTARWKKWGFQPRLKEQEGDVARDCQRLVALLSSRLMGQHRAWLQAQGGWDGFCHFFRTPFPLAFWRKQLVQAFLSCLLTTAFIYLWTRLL

Row | SMILES | displacement
1 | O=C1OC(c2ccc(Cl)cc2)=C/C1=C\c1cccnc1 | 18.8%
2 | COC(=O)CC1=C(C(=O)OC)C(c2cccc([N+](=O)[O-])c2)C(C(=O)OC)=C(C)N1 (stereo unspecified) | -12.5%
3 | CCOc1ccc2nc(NC(=O)c3cc(C)cc(C)c3)sc2c1 | 0.8%
4 | CN(C)C(=O)/C(=C\c1cccc(Br)c1)NC(=O)c1ccccc1 | -2.4%
5 | Cc1ccc(S(=O)(=O)Oc2cccc(/C=C3/SC(=S)N(c4ccccc4)C3=O)c2)cc1 | -12.7%
6 | c1ccc(-c2nnnn2-c2ccccc2)cc1 | 9.6%
7 | CC(=O)ON=C1CC(C)(C)NC(C)(C)C1 | 12.1%
8 | O=S(=O)(c1cc(Cl)ccc1Cl)N1CCN(C/C=C/c2ccccc2)CC1 | -7.4%
9 | COc1ccc(-c2ccc(/C=C/c3cc(C(F)(F)F)[nH]c(=O)n3)o2)c([N+](=O)[O-])c1 | 78.8%
10 | Cc1ccc(NC(=O)c2cnccn2)cc1C | -4.6%
11 | Cc1cn(C(=O)C(C)N2C(=O)c3ccccc3C2=O)c(C)n1 (stereo unspecified) | -5.3%
12 | CC(=O)c1cccc(NC(=O)c2ccc(CN(c3ccccc3)S(C)(=O)=O)cc2)c1 | -0.6%
13 | CC1CN(Cc2c(O)ccc3c4c(c(=O)oc23)CCC4)CC(C)O1 (stereo unspecified) | 2.8%
14 | CC(=O)Nc1ccc2c(c1)ncn2-c1ccccc1 | -4.2%
15 | N#Cc1c(N)sc2c1CCN(Cc1ccccc1)C2 | 3.4%
16 | CN(C)CCCN(CCCNC(=O)/C=N/O)Cc1ccccc1 | 3.2%
17 | O=C(CN(c1ccc(Br)cc1)S(=O)(=O)c1ccccc1)NCC1CCCCC1 | 1.3%
18 | CCCCCc1ccc(/C(C)=N/Nc2nc(C)cc(=O)[nH]2)cc1 | -5.4%
19 | COc1ccc(NC(=O)c2ccc(N(Cc3ccc(Cl)cc3)S(C)(=O)=O)cc2)cc1OC | -5.3%
20 | CC(=O)Nc1ccc(NC(=O)c2cccc(I)c2)cc1 | -8.3%
21 | CC(=O)Nc1ccc(NS(=O)(=O)c2ccc(C)cc2)cc1 | 0%
22 | COc1ccccc1N(CC(=O)Nc1ccc(Cl)cc1)S(=O)(=O)c1ccccc1 | -0.7%
23 | COc1cc(NC(=O)c2cccc(F)c2)c(OC)cc1NC(C)=O | 7.4%

Row | SMILES | displacement
24 | COc1ccc(C2Nc3ccccc3C(=O)N2c2ccc(Cl)cc2)cc1Cn1nc(C)c([N+](=O)[O-])c1C (stereo unspecified) | 2.4%
25 | CCOc1ccc(S(=O)(=O)N(CC(=O)NC2CCCCC2)c2ccc(C)cc2)cc1 | 8%
26 | CCOc1ccc(Cl)cc1/C=C1/SC(=S)N(CC)C1=O | 1.4%
27 | COC(=O)CN(Cc1ccccc1)S(=O)(=O)c1ccccc1 | -4.1%
28 | Nc1nc2ccc3c(c2s1)CCCC3 | -9%
29 | Cc1cccc(NC(=O)/C(C#N)=C/c2cn(CC(=O)Nc3ccccc3)c3ccccc23)c1C | -60.5%
30 | CCC1(C)C2(C#N)C(N)=NC(OC)(OC)C12C#N (stereo unspecified) | 16.4%
31 | CCCCc1n[nH]c2c1/C(=N\O)CC(C)(C)C2 | 6.6%
32 | Cc1ccc(C(=O)NNC(=O)COc2ccc(C(C)(C)C)cc2)cc1 | -1.9%
33 | Cc1ccnc(NS(=O)(=O)c2ccc(NC(=O)COc3ccc(Cl)cc3)cc2)n1 | -5.1%
34 | CCOC(=O)N(CCCC(=O)OC)CP(C)(=O)OC(C)C (stereo unspecified) | -6.9%
35 | CC(/C=C1\SC(=S)N(C(C)C(=O)O)C1=O)=C\c1ccccc1 (stereo unspecified) | 2%
36 | CCn1c2ccccc2c2nnc(NN)nc21 | -2.3%
37 | O=C(Nc1nc(-c2ccc(Cl)c(Cl)c2)cs1)c1cccc([N+](=O)[O-])c1 | 5.8%
38 | Cc1ccc(CNC(=O)C(C)Oc2ccc(Cl)cc2Cl)cc1 (stereo unspecified) | -12.1%
39 | CCCN1C(=O)c2ccccc2NC1c1cc(OC)c(OC)c(OC)c1 (stereo unspecified) | 15.4%
40 | Cc1ccc(C(=O)O/N=C(\N)c2ccc(Br)cc2)cc1[N+](=O)[O-] | 1.6%
41 | COc1cc(/C=C2/SC(=S)N(Cc3ccccc3)C2=O)ccc1OS(=O)(=O)c1ccccc1 | 1.9%
42 | COCCCNC(=O)CN(c1ccccc1OC)S(=O)(=O)c1ccccc1 | 7.3%
43 | CNC(=S)N(C)/N=C/C(=O)c1ccccc1 | -7.7%
44 | Cc1n[nH]c(C)c1Sc1ccccc1N=Cc1ccc([N+](=O)[O-])cc1 | 4.8%
45 | CCOc1ccc(-c2cc(C(=O)Nc3nnc(C)s3)c3ccccc3n2)cc1 | 6.3%
46 | CCN1C(=O)NC(c2ccccc2[N+](=O)[O-])C(C(=O)OC2CCCCC2)=C1C (stereo unspecified) | -8.3%

Row | SMILES | displacement
47 | O=C(NC(C(=O)c1ccccc1)N1CCOCC1)c1ccccc1 (stereo unspecified) | -1%
48 | O=C(COc1ccccc1)NCCCN1CCOCC1 | 3.3%
49 | COc1cc(NC(=O)c2cccnc2)c(OC)cc1NC(=O)c1cccnc1 | 10.9%
50 | COc1ccc(C(=O)CC(Nc2ccc([N+](=O)[O-])cc2)c2ccc(OC)cc2)cc1 (stereo unspecified) | -7.7%
51 | N/C(=N\OC(=O)c1ccccc1F)c1ccc([N+](=O)[O-])cc1 | 8.1%
52 | COc1cc(NS(=O)(=O)c2ccc([N+](=O)[O-])cc2)c(OC)cc1Br | 1.8%
53 | CCN(CC)CCOc1ccccc1C | 9.1%
54 | CSc1nc(-c2ccccc2)nc(N2CCCC2)c1C(C)=O | 5%
55 | O=C(CCC(=O)Nc1cccc([N+](=O)[O-])c1)NCCO | 0.5%
56 | Cc1ccccc1NC(=O)c1c(NC(=O)Cc2ccccc2)sc2c1CCCCC2 | 14.5%
57 | Nc1n[nH]c(N)c1N=Nc1cccc(C(F)(F)F)c1 | -2.4%
58 | CC(=O)N(C)c1ccc(NC(=S)Nc2ccccc2)cc1 | 0.1%
59 | COc1cccc(OCCOc2cccc(/C=c3\sc4nc5ccccc5n4c3=O)c2)c1 | 4.4%
60 | O=C(NC1CCCCCC1)c1cc(-c2ccco2)nc2ccccc12 | -6.4%
61 | COc1cc2nc(C)sc2cc1OC | 1.9%
62 | Cc1cccc(N2C(=O)/C(=C/c3ccc(Br)cc3)SC2=S)c1 | 15.9%
63 | O=C(Nc1ccc(N2CCCCC2)c(Cl)c1)c1sc2ccccc2c1Cl | 4.5%
64 | Cc1cc(C)c2c(NCSCc3ccccc3)c(C#N)sc2n1 | -6.7%
65 | CCCc1cc(=O)n2[nH]c(-c3ccccc3)cc2n1 | -13%
66 | CN1C(=O)/C(=C\c2ccccc2OCCOc2ccc(C(C)(C)C)cc2)SC1=S | 1.4%
67 | COc1ccc(OC)c(/C=N\Nc2cc(C)c3ccccc3n2)c1 | -0.3%
68 | N#Cc1c(NC(=O)C2CCCC2)sc2c1CCCCCC2 | 4.7%
69 | O=C1CC(N2CCN(c3ccc(Cl)cc3)CC2)C(=O)N1c1cccc(Br)c1 (stereo unspecified) | -7.8%

Row | SMILES | displacement
70 | O=C(c1ccccc1)c1ccc2[nH]c3ccccc3c2c1 | -6.9%
71 | COC(=O)C1=C(C)NC(=O)/C1=C\c1ccc(Cl)cc1Cl | 9.9%
72 | COc1cc(C=C2C(=O)N(C)C(=O)N(C)C2=O)ccc1Oc1ccc([N+](=O)[O-])cn1 | 11.1%
73 | NC(=O)NC(c1ccccc1)c1cccc(Br)c1 (stereo unspecified) | 3.9%
74 | COc1ccc(C(=O)Nc2nc3ccc4ccccc4c3s2)c(OC)c1 | -8%
75 | CCN(CC)c1ccc(NC(=O)c2cc([N+](=O)[O-])ccc2Cl)cc1 | 12.9%
76 | Cc1ccc2nsnc2c1NC(=O)c1ccc([N+](=O)[O-])cc1 | 0.8%
77 | Cc1cc(N[C@@H]2O[C@@H](C)[C@H](O)[C@@H](O)[C@H]2O)c([N+](=O)[O-])cc1C | 6.5%
78 | COc1cc(/C=N/Nc2nn[nH]n2)ccc1O | 11.4%
79 | COc1ccccc1NC(=O)C1=C(C)NC2=C(C(=O)CCC2)C1c1cc(OC)c(OC)c(OC)c1 (stereo unspecified) | 6.5%
80 | C=CCNC(=O)/C=C/c1ccc(OC)c(OC)c1 | 16.6%
81 | O=C(CSc1nc2ccccc2o1)Nc1ccccc1Br | 3.9%
82 | COC(=O)C1=C(C)NC2=C(C(=O)CC(c3ccccc3)C2)C1c1cc(Cl)c(O)c(OC)c1 (stereo unspecified) | 10.5%
83 | COc1ccc(CNC(=O)COc2ccccc2C)cc1 | -17.9%
84 | CCOc1cccc(C2Nc3ccccc3NC3=C2C(=O)CC(c2ccc(Cl)cc2)C3)c1 (stereo unspecified) | -3.3%
85 | CN1CCOCCOCCN(C)C(=O)N2CCOCCOCCN(CCOCC2)C1=O | 12.6%
86 | NC(=O)c1c(NC(=O)c2ccco2)sc2c1CCCC2 | 0%
87 | COc1ccc(C(=O)Oc2ccc(C=C3C(=O)NC(=O)NC3=O)cc2)cc1 | -32.9%
88 | COc1ccc(-n2c(C)cc(C)nc2=O)cc1 | 4.7%
89 | O=C(Nc1cc(C(F)(F)F)ccc1Cl)C1COc2ccccc2O1 (stereo unspecified) | 5.1%
90 | C=CCOc1c(Br)cc(/C=C2/C(=O)NC(=O)N(c3ccccc3F)C2=O)cc1OCC | -3%
91 | CC1(C)C=C(/C=C/c2ccccc2)NC(=S)N1 | 5.1%
92 | CN(C)c1ccc(NC(=O)c2ccc(F)cc2)cc1 | 1.8%

Row | SMILES | displacement
93 | CCOC(=S)N/C(=N/S(=O)(=O)c1ccc(C)cc1)c1ccccc1 | 13.7%
94 | O=C(Nc1ccc2oc(-c3ccc(Cl)cc3Cl)nc2c1)c1ccc2c(c1)OCCO2 | 2.1%
95 | O=C1CC(Cc2ccccc2)C(=O)N1c1ccc2ccccc2n1 (stereo unspecified) | 4.3%
96 | CCCCOC(=O)c1ccc(NC(=O)c2ccc(OC)c([N+](=O)[O-])c2)cc1 | -1.2%
97 | Cc1ccccc1SCCNC(=O)Nc1cc(F)c(F)cc1Cl | -8.1%
98 | COc1cc(Cl)cc(/C=C2\SC(=S)N(C)C2=O)c1O | -29.1%
99 | CC(C)c1c(O)nc(SCCC(=O)O)[nH]c1=O | -11.9%
100 | CCOC(=O)c1cc2cc([N+](=O)[O-])ccc2oc1=O | -5.9%
101 | CC(C)c1ccc(OCC(=O)Nc2ccc(F)cc2)cc1 | 5.6%
102 | C=CCC1(O)C(C)C(c2cc(OC)ccc2OC)NC(c2cc(OC)ccc2OC)C1C (stereo unspecified) | 13.9%
103 | Nc1cc[n+](CC(=O)c2ccccc2)cc1 | 8.3%
104 | COC(=O)/C(=C\C(=O)c1ccc(Cl)cc1)Nc1ccccc1 | -46.6%
105 | COc1ccc(CN2CCN(CCCc3ccccc3)CC2)c(OC)c1 | -11.1%
106 | O=C(O)c1ccccc1-c1ccccc1C(=O)Nc1ccc(-c2nc3ccccc3o2)cc1 | -0.6%
107 | Cc1ccccc1-n1c(N)c(C#N)c2nc3ccccc3nc21 | 16.4%
108 | O=C(NOC(=O)c1ccccc1Br)c1ccc(Cl)cc1 | -2.2%
109 | COc1ccc(S(=O)(=O)N2CCN(Cc3cc(OC)c(O)c(OC)c3)CC2)cc1 | -5.7%
110 | COc1ccc(N=C2NC(=O)/C(=C/c3ccc(N(C)C)cc3)S2)cc1 | 84.9%
111 | CCN1C(=O)/C(=C\c2cc(Cl)ccc2OCc2ccc(F)cc2)SC1=S | 5.6%
